{"source": "PubChem BioAssay (Tox21)", "key": {"[1]": {"test": "qHTS assay to identify small molecule antagonists of the androgen receptor (AR) signaling pathway - cell viability counter screen (AID 743033; further: nearly all actives have a fitted effect of over 45% in size; further: potency means the concentration at half of the fitted maximal effect)", "settings": "AR-bla HEK293 viability, CellTiter-Glo luminescence, 16 h; activity change, negative = cytotoxicity: at 58.5 µM (top of the series) unless noted"}, "[2]": {"test": "qHTS assay to identify small molecule antagonists of the estrogen receptor alpha (ER-alpha) signaling pathway using the BG1 cell line - cell viability counter screen (AID 743081);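 further: compound given together with 17beta-estradiol as the ER stimulus; potency means the concentration at half of the fitted maximal effect; nearly all actives have a fitted effect of over 45% in size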", "settings": "BG1Luc4E2 viability, CellTiter-Fluor, 22 h; activity change, negative = cytotoxicity: at 70.3 µM (top of the series) unless noted"}, "[3]": {"test": "A CellTox Green Cytotoxicity Assay to monitor cytotoxicity in HepG2 cells - 24 hour (AID 1224878); further: nearly all actives have a fitted effect of over 45% in size; further: potency means the concentration at half of the fitted maximal effect", "outline": "(§1)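 Real-time, homogeneous cytotoxicity readout: dead-cell DNA staining by CellTox Green in HepG2 monolayers, fluorescence measured at timed intervals up to 40 h of continuous compound exposure.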"}, "[4]": {"test": "qHTS RealTime-Glo MT Cell Viability Assay in HEK293 cells - 40 hour (AID 1224874)", "settings": "RealTime-Glo luminescence; max response: active compounds read low", "outline": "(§2)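 Nonlytic bioluminescent viability monitoring. HEK293 at 600 cells/well with reagent; 5 h settle; compound transfer by pintool; plates held at 37 C and read at set time points.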"}, "[5]": {"test": "A CellTox Green Cytotoxicity Assay to monitor cytotoxicity in HEK293 cells - 8 hour (AID 1224884)", "outline": "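Cytotoxicity was tracked continuously in HEK293 cells by a DNA-binding dye excluded from viable cells. Compounds were transferred in DMSO 5 h after seeding; fluorescence was recorded at intervals up to 40 h.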"}, "[6]": {"test": "qHTS RealTime-Glo MT Cell Viability Assay in HEK293 cells - 24 hour (AID 1224886)", "outline": "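Quantitative high-throughput screen of the Tox21 10K library in HEK293: cells and RealTime-Glo reagents plated together, compound added at 5 h, luminescence monitored through 40 h at 37 C.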"}, "[7]": {"test": "qHTS RealTime-Glo MT Cell Viability Assay in HEK293 cells - 8 hour (AID 1224887)", "outline": "as §2"}, "[8]": {"target": "Peroxisome proliferator-activated receptor delta (Homo sapiens) (UniProt Q03181)", "sequence (Q03181 whole entry, looked up)": "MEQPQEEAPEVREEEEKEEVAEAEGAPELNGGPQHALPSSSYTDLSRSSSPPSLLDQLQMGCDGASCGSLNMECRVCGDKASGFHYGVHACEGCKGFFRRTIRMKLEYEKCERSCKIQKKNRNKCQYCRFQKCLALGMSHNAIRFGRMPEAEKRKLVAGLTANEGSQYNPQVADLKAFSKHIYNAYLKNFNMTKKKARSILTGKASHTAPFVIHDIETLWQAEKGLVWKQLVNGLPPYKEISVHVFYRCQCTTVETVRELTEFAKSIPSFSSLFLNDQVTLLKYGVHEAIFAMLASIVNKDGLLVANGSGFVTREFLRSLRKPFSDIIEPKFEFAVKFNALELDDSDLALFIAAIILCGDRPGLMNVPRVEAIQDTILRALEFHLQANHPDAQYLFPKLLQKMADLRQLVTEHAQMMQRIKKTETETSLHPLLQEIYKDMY", "test": "qHTS assay to identify small molecule antagonists of the peroxisome proliferator-activated receptor delta (PPARd) signaling pathway (AID 743215; active means well fitted inhibition curve with a large enough effect in the signal ratio in the repeat runs, not every such curve was filed as active; inconclusive means weak or mixed curves, or effect the other way; inactive means no such curve, though single readings can be large or run the other way; the % refers to the signal ratio)", "settings": "HEK293H PPARd-UAS-bla, beta-lactamase FRET ratio, antagonist, 17 h; ratio activity, negative = inhibition: at 62 µM (top of the series) unless noted", "outline": "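Inhibition of L165041-driven (300 nM final) PPARd signaling is scored in HEK293H UAS-bla cells. Exposure lasts 17 h at 37 C; beta-lactamase activity is then read by FRET substrate fluorescence after 2 h at room temperature.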"}, "[9]": {"test": "Caspase-3/7 induction in HepG2 cells by small molecules, qHTS cell viability counter screen (AID 1346981)", "outline": "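Steps: seed 2,000 HepG2 cells per well; incubate 5 hr at 37 C; pin-add compounds in DMSO; incubate 16 hr; add CellTiter-Fluor; after 1 hr at 37 C and 5% CO2, read fluorescence.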"}, "[10]": {"test": "qHTS assay for small molecule activators of the heat shock response signaling pathway (AID 743210; active means well fitted activation curve with a large enough effect in the signal ratio in the repeat runs, with a control signal flat, not every such curve was filed as active; inconclusive means weak or mixed curves; the % refers to the signal ratio)", "settings": "HeLa HSE-bla reporter, beta-lactamase ratio, 5 h; activation: at 62.6 µM (top of the series) unless noted", "outline": "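HSE-bla HeLa cells (beta-lactamase reporter under heat shock response elements) were exposed to compounds for 5 h at 37 C, then loaded with LiveBLAzer B/G FRET substrate for 2.5 h at room temperature before fluorescence reading.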"}, "[11]": {"test": "A CellTox Green Cytotoxicity Assay to monitor cytotoxicity in HepG2 cells - 40 hour (AID 1224879)", "outline": "as §1"}, "[12]": {"test": "Caspase-3/7 induction in CHO-K1 cells by small molecules, qHTS cell viability counter screen (AID 1346979)", "outline": "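In the same wells as the caspase read, viability of compound-treated wild-type CHO-K1 cells was assessed using CellTiter-Fluor, added after 16hr at 37C and measured by fluorescence following 1hr further incubation.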"}, "[13]": {"test": "qHTS assay to identify small molecule antagonists of the androgen receptor (AR) signaling pathway using the MDA cell line - cell viability counter screen (AID 743041)", "settings": "MDA-kb2 viability, CellTiter-Fluor, 16 h, cells co-treated with R1881 androgen agonist; viability change, negative = cytotoxic: at 70.3 µM (top of the series)", "outline": "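MDA-kb2 AR-luc human breast carcinoma cells (MMTV-luciferase, AR/GR responsive) were treated with compounds plus R1881 agonist for 16 h at 37 °C. Viability was read as CellTiter-Fluor fluorescence in the same wells as the reporter assay.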"}, "[14]": {"test": "qHTS assay to identify small molecule that activate the aryl hydrocarbon receptor (AhR) signaling pathway - cell viability counter screen (AID 743086)", "outline": "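HepG2-AhR-luc (HG2L7.5c1) cells, 4000/well, were preincubated 5 h at 37C, exposed to compound in qHTS format for 24 hr at 37C, then given CellTiter-Fluor for 30 min; viability was read as fluorescence in the reporter wells.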"}, "[15]": {"target": "Cytochrome P450 3A4 (Homo sapiens) (UniProt P08684)", "sequence (P08684 whole entry, looked up)": "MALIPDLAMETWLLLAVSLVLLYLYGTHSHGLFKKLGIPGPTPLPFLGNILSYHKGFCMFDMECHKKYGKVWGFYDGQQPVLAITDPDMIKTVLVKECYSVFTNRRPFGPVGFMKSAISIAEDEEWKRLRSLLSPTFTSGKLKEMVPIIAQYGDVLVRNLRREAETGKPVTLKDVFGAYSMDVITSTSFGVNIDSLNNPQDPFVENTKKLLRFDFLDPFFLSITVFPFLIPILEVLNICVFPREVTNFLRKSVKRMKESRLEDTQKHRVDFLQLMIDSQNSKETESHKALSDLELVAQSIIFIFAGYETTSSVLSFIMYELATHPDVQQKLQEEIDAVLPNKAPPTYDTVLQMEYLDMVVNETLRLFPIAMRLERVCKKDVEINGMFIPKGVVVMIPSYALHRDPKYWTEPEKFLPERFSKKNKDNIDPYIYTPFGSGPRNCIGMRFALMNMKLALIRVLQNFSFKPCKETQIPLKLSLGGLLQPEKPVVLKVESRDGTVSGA", "test": "Cytochrome P450 Family 3 Subfamily A Member 4 (CYP3A4) small molecule antagonists: luciferase reporter qHTS assay (AID 1671201)", "outline": "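Inhibition of CYP3A4 is measured as loss of light: the enzyme converts a proluciferin substrate to luciferin, detected luminescently. Reaction ran 1 h at room temperature with NADPH regeneration after a 10 min compound preincubation.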"}, "[16]": {"target": "Vitamin D3 receptor (Homo sapiens) (UniProt P11473)", "sequence (P11473 whole entry, looked up)": "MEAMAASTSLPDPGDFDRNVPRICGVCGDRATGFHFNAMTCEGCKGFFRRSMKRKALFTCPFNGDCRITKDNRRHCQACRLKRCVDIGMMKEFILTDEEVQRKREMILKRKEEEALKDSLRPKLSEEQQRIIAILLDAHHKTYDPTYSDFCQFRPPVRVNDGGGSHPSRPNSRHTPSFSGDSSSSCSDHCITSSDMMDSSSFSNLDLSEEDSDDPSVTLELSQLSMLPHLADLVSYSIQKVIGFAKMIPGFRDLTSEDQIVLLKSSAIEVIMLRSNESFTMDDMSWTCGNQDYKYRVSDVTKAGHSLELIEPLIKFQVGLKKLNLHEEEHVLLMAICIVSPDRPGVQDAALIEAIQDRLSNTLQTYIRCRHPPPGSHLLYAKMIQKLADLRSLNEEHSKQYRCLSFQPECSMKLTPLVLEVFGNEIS", "test": "qHTS assay to identify small molecule agonists of the vitamin D receptor (VDR) signaling pathway (AID 743222; calls by dose curve)", "settings": "HEK293T VDR-UAS-bla, beta-lactamase FRET ratio, 16 h; activation: at 63.5 µM (top of the series) unless noted", "outline": "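Quantitative HTS agonist-mode screen: compounds in DMSO were pin-transferred onto VDR-bla cells and incubated 16 h at 37C, 5% CO2. Reporter activity was detected with LiveBLAzer B/G FRET substrate after 2 h at room temperature.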"}}, "note": "This list was built around the results that the source calls inconclusive (neither active nor inactive); the mix of calls is not that of the screen. Where a call stands in place of a potency, no number is given. For some assays here: Potencies beside an inconclusive call are fits to weak or partial responses and may not hold up. Activity calls are given as the source filed them. Unless noted, the call rests on the fitted dose curve; in most records, active means well fitted curve in the direction sought with a large enough effect in the repeat runs; inconclusive means weak or mixed curves; inactive means no such curve, though single readings can be large; an effect the other way counts as inactive or inconclusive. Tags describe the fitted curve by direction and shape.", "data": [{"smiles": "Nc1cc(C(Cl)=C(Cl)Cl)c(S(N)(=O)=O)cc1S(N)(=O)=O", "values": [{"measurement": "Potency", "setting": "[1]", "result": "inconclusive: 0.0018 µM [cytotoxic, full curve]"}, {"measurement": "Potency", "setting": "[2]", "result": "inconclusive: 16.8 µM [rising, full curve, poor fit]"}]}, {"smiles": "OCC1(CO)COCOC1", "values": [{"measurement": "Potency", "setting": "[3]", "result": "inconclusive: 60.8 µM [activator, single point]"}]}, {"smiles": "Cc1nc2n(c(=O)c1CCN1CCC(c3noc4cc(F)ccc34)CC1)CCC[C@H]2O", "values": [{"measurement": "Potency", "setting": "[4]", "result": "inconclusive: 5.22 µM [cytotoxic, partial curve]"}, {"measurement": "cytotoxicity increase", "setting": "[5]", "result": "inactive: 2.15% [at 15.8 µM]"}, {"measurement": "Potency", "setting": "[6]", "result": "inconclusive: 4.65 µM [cytotoxic, partial curve]"}, {"measurement": "Potency", "setting": "[7]", "result": "active: 3.69 µM"}]}, {"smiles": "C/C=C/C=C/CO", "values": [{"measurement": "Potency", "setting": "[8]", "result": "inactive"}, {"measurement": "Potency", "setting": "[6]", "result": "inconclusive: 17.4 µM [cytotoxic, full curve]"}, {"measurement": "Potency", "setting": "[9]", "result": "inactive"}]}, {"smiles": "Cc1ccccc1C", "values": [{"measurement": "Potency", "setting": "[6]", "result": "inactive"}]}, {"smiles": "CC(=O)c1ccc(O)c(C(N)=O)c1", "values": [{"measurement": "Potency", "setting": "[10]", "result": "inactive"}]}, {"smiles": "Cc1onc(-c2c(Cl)cccc2Cl)c1C(=O)Cl", "values": [{"measurement": "Potency", "setting": "[11]", "result": "inactive"}, {"measurement": "Potency", "setting": "[12]", "result": "inconclusive: 26.6 µM [rising, partial curve]"}, {"measurement": "Potency", "setting": "[9]", "result": "inconclusive: 33.5 µM [rising, single point]"}]}, {"smiles": "CCCCc1nc(Cl)c(CO)n1Cc1ccc(-c2ccccc2-c2nn[nH]n2)cc1", "values": [{"measurement": "Potency", "setting": "[1]", "result": "inconclusive: 0.0535 µM [cytotoxic, full curve, poor fit]"}, {"measurement": "Potency", "setting": "[13]", "result": "inactive"}, {"measurement": "Potency", "setting": "[11]", "result": "inactive"}]}, {"smiles": "O=C(OCCN1CCOCC1)c1cccnc1Nc1cccc(C(F)(F)F)c1", "values": [{"measurement": "ratio activity, negative = inhibition", "setting": "[8]", "result": "inconclusive: -42.1%"}, {"measurement": "Potency", "setting": "[4]", "result": "inconclusive: 21.3 µM [cytotoxic, partial curve]"}, {"measurement": "Potency", "setting": "[6]", "result": "inconclusive: 21.3 µM [cytotoxic, partial curve]"}]}, {"smiles": "NC(CS)C(=O)O", "note": "(centres undefined)", "values": [{"measurement": "Potency", "setting": "[13]", "result": "inconclusive: 0.0699 µM [rising, full curve, poor fit]"}, {"measurement": "Potency", "setting": "[2]", "result": "inconclusive: 3.76 µM [rising, partial curve]"}]}, {"smiles": "CCOc1ccc(NC(=O)OC(C)C)cc1OCC", "values": [{"measurement": "Potency", "setting": "[13]", "result": "inactive"}, {"measurement": "Potency", "setting": "[10]", "result": "inactive"}, {"measurement": "Potency", "setting": "[8]", "result": "inactive"}, {"measurement": "Potency", "setting": "[4]", "result": "inconclusive: 43.6 µM [cytotoxic, partial curve, poor fit]"}, {"measurement": "Potency", "setting": "[3]", "result": "inactive"}, {"measurement": "Potency", "setting": "[5]", "result": "inconclusive: 43.6 µM [activator, partial curve, poor fit]"}, {"measurement": "Potency", "setting": "[9]", "result": "inactive"}]}, {"smiles": "CCC(=O)OC/C=C(\\C)CCC=C(C)C", "values": [{"measurement": "Potency", "setting": "[6]", "result": "inactive"}, {"measurement": "Potency", "setting": "[7]", "result": "inactive"}, {"measurement": "Potency", "setting": "[9]", "result": "inactive"}]}, {"smiles": "CCCCCCCCCCCCCCCCN(C)C", "values": [{"measurement": "activity change, negative = cytotoxicity", "setting": "[7]", "result": "inactive: 5.23% [at 6.97 µM]"}]}, {"smiles": "NC(=O)N1c2ccccc2CC(=O)c2ccccc21", "values": [{"measurement": "Potency", "setting": "[1]", "result": "inactive"}, {"measurement": "Potency", "setting": "[13]", "result": "inactive"}, {"measurement": "Potency", "setting": "[14]", "result": "inactive"}, {"measurement": "Potency", "setting": "[10]", "result": "inactive"}, {"measurement": "Potency", "setting": "[7]", "result": "inactive"}, {"measurement": "Potency", "setting": "[12]", "result": "inconclusive: 37.6 µM [cytotoxic, single point]"}]}, {"smiles": "O=C=NCc1cccc(CN=C=O)c1", "values": [{"measurement": "Potency", "setting": "[15]", "result": "active: 4.25 µM"}]}, {"smiles": "Cc1ccccc1C(N)=O", "values": [{"measurement": "Potency", "setting": "[8]", "result": "inactive"}]}, {"smiles": "COc1ccc(Cc2cnc(N)nc2N)cc1OC", "values": [{"measurement": "Potency", "setting": "[16]", "result": "inactive"}, {"measurement": "Potency", "setting": "[5]", "result": "inactive"}]}]}
